Laboratory results from PubChem BioAssay AID2107 (National Center for Advancing Translational Sciences (NCATS), 2009).
The whole screen tested about 240,000 compounds, of which about 20 (0.008%) were called active. This list was built around the results that the source calls inconclusive (neither active nor inactive); the mix of calls is not that of the screen. Calls follow the shape of the dose curve; as a rule, active = well fitted inhibition curve with a large enough effect; inconclusive = small, poorly fitted or top-dose-only effect, or effect the other way; inactive = flat fitted curve, though single readings scatter. Potencies of inconclusive entries are left out as doubtful fits.

Target: Alpha-galactosidase A (Homo sapiens) (UniProt P06280)
Assay: qHTS Assay for Inhibitors and Activators of Human alpha-Galactosidase From Spleen Homogenate;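 as to activity change, negative = inhibition: 0% = enzyme with vehicle and -100% = no enzyme basal signal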
Settings: 4MU-alpha-Gal fluorescence, 40 min; activity change, negative = inhibition: at 80 µM (top of the series)
How it was run: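 Human spleen homogenate (1 ug) was the enzyme source, with 4-methylumbelliferyl-alpha-D-galactopyranoside (1 mM final) in pH 5.0 citrate buffer with 0.01% Tween-20. Compounds were titrated; after 40 min at 37C, NaOH/glycine stop, 4-MU fluorescence read; AC50 from Hill fits.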
Potency is read from the fitted curve at half-maximal effect; tags tell the direction and shape of the fitted curve.

Chain of UniProt P06280 (P06280 whole entry, looked up): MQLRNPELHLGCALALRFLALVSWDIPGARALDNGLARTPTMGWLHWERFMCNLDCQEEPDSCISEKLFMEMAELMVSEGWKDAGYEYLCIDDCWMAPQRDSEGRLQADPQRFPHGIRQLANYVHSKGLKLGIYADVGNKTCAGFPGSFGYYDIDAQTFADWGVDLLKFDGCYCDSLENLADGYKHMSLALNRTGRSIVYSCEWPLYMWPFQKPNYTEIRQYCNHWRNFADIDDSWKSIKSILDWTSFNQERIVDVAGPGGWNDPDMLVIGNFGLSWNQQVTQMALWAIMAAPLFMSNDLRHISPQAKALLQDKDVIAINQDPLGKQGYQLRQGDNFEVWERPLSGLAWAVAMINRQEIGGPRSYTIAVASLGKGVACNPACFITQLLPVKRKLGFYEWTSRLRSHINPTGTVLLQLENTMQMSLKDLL

SMILES	Potency	activity change, negative = inhibition
COc1cc(/C=N/NC(=O)C2=NNC(=O)C2C)ccc1O (stereo not drawn)	inconclusive [inhibitor, single point]	
O=C(O)CCCNC(=O)c1ccc(NC(=O)Cc2ccc(Cl)cc2)cc1	inconclusive [inhibitor, single point]	
COC(=O)NC(c1ccccc1)C(C(=O)OC)C(=O)OC (stereo not drawn)		inactive: 6.23% [at 17.5 µM]
COc1ccc(N2CCN(CC(O)c3c[nH]c4ccc(OC)cc34)CC2C)cc1 (stereo not drawn)	inconclusive [inhibitor, partial curve, poor fit]	
O=C(NNc1ccc(C2CCCCC2)cc1)C(O)(c1ccccc1)c1cccs1 (stereo not drawn)	inactive	
O=C(O)c1ccc(N=Nc2c(O)[nH]c3ccccc23)cc1	inconclusive [inhibitor, partial curve]	
CC1=CC=CN2C1=NC(=O)CC2(C)C(=O)N(CC(=O)NC1CCCC1)c1cc(C)cc(C)c1 (stereo not drawn)	inconclusive [activator, single point]	
O=C(NCc1ccco1)c1nc2nc(-c3cccs3)cc(C(F)(F)F)n2n1	inconclusive [activator, partial curve]	
N#CC1=C(N)C(C#N)(C#N)C(c2ccncc2)C2CN(C(=O)OCc3ccccc3)CC=C12 (stereo not drawn)	inactive	
CCCC(=O)NNc1c2ccccc2nc2ccccc12	inconclusive [activator, partial curve]	
C#CCSc1nncn1C(=O)/C=C/c1ccccc1	inconclusive [inhibitor, single point]	
Cc1ccc(Cn2cccc(-c3nc4ccccc4s3)c2=O)cc1	inconclusive [activator, single point]	
OCCNc1nc(Nc2ccccc2)nc2ccccc12	inactive	
O=C(CSc1nnc(-c2cccnc2)n1Cc1ccco1)N1CCc2ccccc21	inconclusive [inhibitor, single point]	
O=C1CCSc2ccc(Cl)cc2N1Cc1cccc(Cl)c1	inactive	
C=CCNc1nc(N)c(C(=C(C#N)C#N)c2ccccc2)s1	inconclusive [activator, partial curve]	
CCN(CCO)C(=S)Nc1cc(C(=O)OC)ccc1C(=O)OC	inconclusive [activator, single point]	
Cc1ccc(-n2c(C)cc(/C=N/NC(=O)Cn3c4ccccc4c(=O)c4ccccc43)c2C)cc1	inconclusive [activator, single point]	
COCCN1C=C(C(=O)OC)C(c2ccc(OC)c(OC)c2)C(C(=O)OC)=C1	inconclusive [activator, single point]	
Fc1ccccc1N1CC(c2ccccc2)C(c2cccs2)=N1 (stereo not drawn)	inconclusive [activator, partial curve]	
C[C@@]12CCc3occc3[C@H]1CC[C@]13CC(=O)[C@@H](CC[C@H]12)C3	inactive	
O=C(O)COc1cccc2c1CCC=C2CCO/N=C(\c1ccccc1)c1cccnc1	inactive	

SMILES	Potency	activity change, negative = inhibition
CSc1ccc(C(=O)C2CCCN(C(=O)c3csc(C(C)=O)c3)C2)cc1 (stereo not drawn)	inactive	
Cc1csc(SCCn2c(N3CCN(c4ccccc4)CC3)nc3c2c(=O)[nH]c(=O)n3C)n1	inconclusive [activator, single point]	
CCC(CC)c1nnc(NC(=O)CN2C(=O)c3ccccc3C2=O)s1	inactive	
COCCNc1ccnc(-c2ccccc2C(F)(F)F)n1	inconclusive [inhibitor, single point]	
Cc1cccn2c(=O)c3cc(C(=O)NCC4CCCO4)c(=N)n(Cc4cccnc4)c3nc12 (stereo not drawn)	inconclusive [activator, single point]	
CCN(CC)c1cc(C)c2cc(NC(=O)CNC(C)=O)ccc2n1	inconclusive [activator, partial curve]	
Cc1cccn2c(=O)c(/C=C(\C#N)C(=O)NC3CCS(=O)(=O)C3)c(N3CC(C)OC(C)C3)nc12 (stereo not drawn)	inconclusive [activator, partial curve]	
COc1ccc2cc3cc(C(=O)NCC4CCCO4)oc3nc2c1 (stereo not drawn)	inconclusive [activator, partial curve]	
Cc1ccc(/C=N/NC(=O)COc2ccccc2-c2ccccc2)cc1	inconclusive [inhibitor, partial curve]	
O=C1CCN(S(=O)(=O)c2ccc(Br)cc2)CCN1	inconclusive [inhibitor, single point]	
Clc1ccc(-c2nnc3sc(Cc4cccs4)nn23)cc1	inactive	
COc1ccc(-c2nc3cnc(N4CCN(C)CC4)nc3n(Cc3cccc(OC)c3)c2=O)cc1	inconclusive [activator, single point]	
CC(C)(C)[C@]1(O)CCN2CC3c4ccccc4CCc4cccc(c43)[C@@H]2C1 (stereo partly drawn)	inconclusive [inhibitor, partial curve]	
CCCn1c(=O)c(C(=O)NNS(=O)(=O)c2ccc(Cl)cc2)c(O)c2ccccc21	inactive	
CCc1cccc2c(C(=O)COC(=O)C3=NNC(=O)CC3)c[nH]c12	inactive	
O=C(Cc1c2ccccc2nc2ccccc12)c1ccccc1	inconclusive [activator, single point]	
CC1=C(C(=O)Nc2cccnc2)C(c2ccncc2)n2nnnc2N1 (stereo not drawn)	inconclusive [activator, single point]	
O=C1NC(=O)c2cc(Nc3ccccc3)c(Nc3ccccc3)cc21	inconclusive [inhibitor, partial curve]	
CCCCc1cc(=O)oc2c(CN3CCCC3)c(O)c(Cl)cc12	inconclusive [activator, partial curve]	
CC1=C(C#N)C(c2cccnc2)C2=C(CC(c3ccc(Cl)cc3)CC2=O)N1 (stereo not drawn)	inconclusive [activator, partial curve]	
Cc1ccc2nc3c(cc(C(=O)NCC4CCCO4)n3C)c(=O)n2c1 (stereo not drawn)	inconclusive [activator, partial curve]	
